This is one part of the list. Sequences were assembled here from the parent chain. Inactive controls read about 0.05.

B1: TEV protease; numbered along this chain (parent)
chain: MGESLFKGPRDYNPISSSICHLTNESDGHTTSLYGIGFGPFIITNKHLFRRNNGTLVVQSLHGVFKVKDTTTLQQHLVDGRDMIIIRMPKDFPPFPQKLKFREPQREERICLVTTNFQTKSMSSMVSDTSCTFPSGDGIFWKHWIQTKDGQCGSPLVSTRDGFIVGIHSASNFTNTNNYFTSVPKNFMELLTNQEAQQWVSGWRLNADSVLWGGHKVFMVKPEEPFQPVKEATQL
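Note: Bxb1 expression induced with 0.2% (w/v) L-rhamnose at OD600 near 0.5, cultures sampled hourly, flipped fraction per protease–substrate barcode pair counted by paired-end Illumina sequencing.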

In this assay the parent is B1. The assay can be described thus: raw area under fraction-flipped curve 0-4 h after induction (AUC4h, not background-subtracted), DNA-recorder readout of cleavage of the substrate (dimensionless); higher = more cleavage of the substrate by the protease variant. As to conditions: temperature: 34 °C; time window: 0-4 h after rhamnose induction.
MGESLFKGPRDYNPISSSICHLTNESDGHTTSLYGIGFGPFIITNKHLFRRNNGTLVVQSLHGVFKVKDTTTLQQHLVDGRDMIIIRMPKDFPPFPQKLKFREPQREERICLVTTNFQTKSMSSMVSDTSCTFPSGDGIFWKHWIQTKDGQCGSPLVSTRDGFIVGIHSASYFTNTNNYFTSVPKNFMELLTNQEAQQWVSGWRLNADSVLWGGHKVFMVKPEEPFQPVKEATQL [N172Y]: the “area with substrate EGLYFQS” value is 0.0586, the “area with substrate EILYFQS” value worked out at 0.047, the “area with substrate EPLYFQS” value is 0.0634 and the “area with substrate ETLYFQS” value was found to be 0.0571. The “area with substrate EWLYFQS” value is 0.0681 and the “area with substrate EYLYFQS” value is 0.0562.

MGESLFKGPRDYNPISSSICHLTNESDGHTTSLYGIGFGPFIITNKHLFRRNNGTLVVQSLHGVFKVKDTTTLQQHLVDGRDMIIIRMPKDFPPFPQKLKFREPQREERICLVTTNFQTKSMSSMVSDTSCTFPSGDGIFWKHWIQTKDGQCGSPLVSARDGFIVGIHSASNFTNTNNYFTSVPKNFMELLTNQEAQQWVSGWRLNADSVLWGGHKVFMVKPEEPFQPVKEATQL [T159A]: the “area with substrate EGLYFQS” value is 0.0878, the “area with substrate EHLYFQS” value came out at 0.155, the “area with substrate EKLYFQS” value came to 0.111 and the “area with substrate EMLYFQS” value amounted to 0.139. The “area with substrate EPLYFQS” value was 0.0453, the “area with substrate EQLYFQS” value is 0.106, the “area with substrate EVLYFQS” value was determined as 0.0877 and the “area with substrate EYLYFQS” value is 0.118.

Turning to MGESLFKGPRDYNPISSSICHLTNESDGHTTSLYGIGFGPFIITNKHLFRRNNGTLVVQSLHGVFKVKDTTTLQQHLVDGRIMIIIRMPKDFPPFPQKLKFREPQREERICLVTTNFQTKSMSSMVSDTSCTFPSGDGIFWKHWIQTKDGQCGSPLVSTRDGFIVGIHSASNFTNTNNYFTSVPKNFMELLTNQEAQQWVSGWRLNADSVLWGGHKVFMVKPEEPFQPVKEATQL [D82I], the “area with substrate EHLYFQS” value was determined as 0.0447, the “area with substrate ESLYFQS” value turned out to be 0.0535 and the “area with substrate EWLYFQS” value is 0.0561.

For MGESLFKGPRDYNPISSSICHLTNESDGHTTSLYGIGFGPFIITNKHLFRRNNGTLVTQSLHGVFKVKDTTTLQQHLVDGRDMIIIRMPKDFPPFPQKLKFREPQREERICLVTTNFQTKSMSSMVSDTSCTFPSGDGIFWKHWIQTKDGQCGSPLVSTRDGFIVGIHSASNFTNTNNYFTSVPKNFMELLTNQEAQQWVSGWRLNADSVLWGGHKVFMVKPEEPFQPVKEATQL [V58T], the “area with substrate EHLYFQS” value worked out at 0.118.

Consider MGESLFKGPRDYNPISSSICHLTNESDGHTTSLYGIGFGPFIITNKHLFRRNNGTLVVQSLHGVFKVKDTTTLQQHLVDGRDMIIIRMPKDFPPFPQKLKFREPQREERICLVTTNFQTKSMSSMVSDTSCTFPSGDGIFWKHWIQTKDGQCGSPLISTRDGFIVGIHSASNFTNTNNYFTSVPKNFMELLTNQEAQQWVSGWRLNADSVLWGGHKVFMVKPEEPFQPVKEATQL [V157I], for which the “area with substrate EGLYFQS” value came to 0.096, the “area with substrate EILYFQS” value is 0.0861, the “area with substrate EKLYFQS” value was 0.0963 and the “area with substrate ELLYFQS” value is 0.0559. Besides, the “area with substrate EPLYFQS” value was 0.117, the “area with substrate EQLYFQS” value worked out at 0.0984, the “area with substrate ERLYFQS” value was found to be 0.127 and the “area with substrate ESLYFQS” value stood at 0.0937. For the same variant, the “area with substrate EVLYFQS” value was 0.104 and the “area with substrate EWLYFQS” value was 0.0794.

In the case of MGESLFKGPRDYNPISSSICHLTNESDGHTTSLYGIGFGPFIITNKHLFRRNNGTLVVQSLHGVFKVKDTTTLQQHLVDGRDMIIIRMPKDFPPFPQKLKFREPQREERPCLVTTNFQTKSMSSMVSDTSCTFPSGDGIFWKHWIQTKDGQCGSPLVSTRDGFIVGIHSASNFTNTNNYFTSVPKNFMELLTNQEAQQWVSGWRLNADSVLWGGHKVFMVKPEEPFQPVKEATQL [I110P], the “area with substrate EGLYFQS” value is 0.0575, the “area with substrate EHLYFQS” value turned out to be 0.0683, the “area with substrate ELLYFQS” value was found to be 0.0468 and the “area with substrate EQLYFQS” value worked out at 0.0622. Besides, the “area with substrate ERLYFQS” value was determined as 0.0378 and the “area with substrate ESLYFQS” value turned out to be 0.0509.

Regarding MGESLFKGPRDYNPISSSICHLTNESDGHTTSLYGIGFGPFIITNKHLFRRNNGTLVVQSLHGVFKVKDTTTLQQHLVDGRDMIIIRMPKDFPPFPQKLKFREPQREERICLVTTNFQTKSMSSMVSDTSCTFPSGDGIFWKHWIQTKDGQCGSPLVSTRDGFIVGIHSASNFTNTNNYFTSVPKNFMELLTNQEAQQWVSGWRLNADSVLWQGHKVFMVKPEEPFQPVKEATQL [G213Q], the “area with substrate EGLYFQS” value was 0.0449 and the “area with substrate EVLYFQS” value turned out to be 0.0609.

On to MGESLFKGPRDYNPISSSICHLTNESDGHTTSLYGIGFGPFIITNKHLFRRNNGTLVVQSLHGVFKVKDTTTLQQHLVDGRDMIIIRMPKDFPPFPQKLKFREPQREERICLVTTNFQTKSMSSMVSDTSCTFPSGDGIFWKHWIQTKDGQCGSPLVSTRDGFIVGIHSASNFTNTNNYFTSVPKNFMELLTDQEAQQWVSGWRLNADSVLWGGHKVFMVKPEEPFQPVKEATQL [N193D], for which the “area with substrate EGLYFQS” value is 0.112 and the “area with substrate EPLYFQS” value stood at 0.0935.

Regarding MGESLFKGPRDYNPISSSICHLTNESDGHTTSLYGIGFGPFIITNKHLFRRNNGTLVVQSLHGVFKVKDTTTLQQHLVDGRDMIIIRMPKDFPPFPQKLKFREPQREERICLVTTNFQTKSMSSMVSDTSCTFPSGDGIFWKHWIQTKDGQCGSPLVSTRDGFIVGIHSASNFTNTNNYFTSVPKNFMELLTNQEAFQWVSGWRLNADSVLWGGHKVFMVKPEEPFQPVKEATQL [Q197F], the “area with substrate EGLYFQS” value came out at 0.0995, the “area with substrate EILYFQS” value came out at 0.128, the “area with substrate EKLYFQS” value was found to be 0.114 and the “area with substrate EQLYFQS” value worked out at 0.106. The “area with substrate ERLYFQS” value is 0.119, the “area with substrate ESLYFQS” value was 0.118 and the “area with substrate EVLYFQS” value came out at 0.105.

Consider MGESLFKGPRDYNPISSSICHLTNESDGHTTSLYGIGFGPFIITNKHLFRRNNFTLVVQSLHGVFKVKDTTTLQQHLVDGRDMIIIRMPKDFPPFPQKLKFREPQREERICLVTTNFQTKSMSSMVSDTSCTFPSGDGIFWKHWIQTKDGQCGSPLVSTRDGFIVGIHSASNFTNTNNYFTSVPKNFMELLTNQEAQQWVSGWRLNADSVLWGGHKVFMVKPEEPFQPVKEATQL [G54F], for which the “area with substrate EHLYFQS” value turned out to be 0.082, the “area with substrate EILYFQS” value stood at 0.071, the “area with substrate EKLYFQS” value is 0.0845 and the “area with substrate EMLYFQS” value is 0.0712. Moreover, the “area with substrate EQLYFQS” value was determined as 0.0942, the “area with substrate ESLYFQS” value worked out at 0.0967, the “area with substrate EVLYFQS” value was determined as 0.073 and the “area with substrate EYLYFQS” value turned out to be 0.0668.

For MGESLFKGPRDYNPISSSICHLTNESDGHTTSLYGIGFGPFIITNKHLFRRNNGTLVVQSLHGVFKVKDTTTLQQHLVDGRDMIIIRMPKDFPPFPQKLKFREPQREERICLVTTNFQTKSMSSMVSDTSCTFPSGDGIFWKHWIQTKDGQCGSPLVSTRDGFIVGIHSASNFTNTNNYFTGVPKNFMELLTNQEAQQWVSGWRLNADSVLWGGHKVFMVKPEEPFQPVKEATQL [S182G], the “area with substrate EGLYFQS” value is 0.0891, the “area with substrate EHLYFQS” value worked out at 0.11, the “area with substrate EILYFQS” value is 0.139 and the “area with substrate EKLYFQS” value was 0.112. In addition, the “area with substrate ELLYFQS” value was determined as 0.0877, the “area with substrate EMLYFQS” value was 0.145, the “area with substrate EPLYFQS” value is 0.149 and the “area with substrate EQLYFQS” value was determined as 0.123. Further, the “area with substrate ERLYFQS” value is 0.0981, the “area with substrate ESLYFQS” value is 0.0948, the “area with substrate EWLYFQS” value was determined as 0.143 and the “area with substrate EYLYFQS” value was 0.067.

(Values after the supplement of paper PMC12217912.)
